Where “and” joins values, the source holds several entries; their conditions need not be identical. Equal values may be shown once. In all, about 75,000 compounds went through this assay and about 35 (0.05%) were called active. The call rests on the fitted dose curve; in most records, active means well fitted inhibition curve with a large enough effect; inconclusive means small, poorly fitted or top-dose-only effect; inactive means no such curve, though single readings can be large or run the other way. Only a part is listed here, and it is no random draw. Some structures have more than one record in an assay (separate samples or runs), and their calls can disagree.
Each compound was assayed against Breast cancer type 1 susceptibility protein (Homo sapiens) (UniProt P38398) (assay: qHTS Assay for Inhibitors of BRCT-Phosphoprotein Interaction (Green Fluorophore)). Settings: BRCA1 BRCT-phosphopeptide binding, green fluorescence polarization; series mostly up to 76.9 µM; activity change, negative = inhibition: at the top concentration.
Experimental: NIH Molecular Libraries Screening Centers Network [MLSCN]
NIH Chemical Genomics Center [NCGC]
PI Name: Natarajan, Amarnath; University of Texas
A complex of BRCT (C-terminal portion of BRCA1, MW ~35 kDa, His-tagged) and fluorescently labeled pBACH1 phosphorylated 10 aa peptide fragment of BACH1, a helicase implicated in DNA repair, is incubated with library members. Inhibitors of BRCT-pBACH1 binding are detected by a decrease in the fluorescence polarization (FP) of the fluorophore. In order to minimize the effect of fluorescence artifacts and to increase the overall robustness of the screen, the compound library members were incubated in separate reactions with fluorescein labeled probe-protein complexes. Protein and labeled probes were supplied by Dr. Amarnath Natarajan, Department of Pharmacology and Toxicology, University of Texas Medical Branch Galveston, TX.
Assay Buffer: 16mM Na2HPO4, 4 mM NaH2PO4, 150 mM NaCl, 1 mM EDTA, 1 mM DTT, 0.02% NaN3, and 0.01% Tween 20 at pH 7.3.
100 nM labeled decapeptide/250 nM protein in columns 1, 2, 5 - 48. Titration of unlabeled decapeptide control (from 10 mM, then 1:2 dilution in duplicate) pin-transferred to column 2, rows 1 to 16. Column 1 is neutral.
Three uL of reagents were dispensed to 1536-well Greiner black solid-bottom plates. Compounds and controls (23 nL) were transferred
via Kalypsys PinTool. The plates were incubated for 12 min at room temperature, and then read on ViewLux (Perkin-Elmer) High throughput CCD imager using FITC for the fluorescein-labeled decapeptide probe polarization filter sets. During dispense, reagent bottles were kept submerged into 4 deg C water bath and all liquid lines were covered with aluminum foil to minimize probe and protein degradation. All screening operations were performed on a Kalypsys robotic system (Kalypsys, Inc., San Diego, CA) containing one RX-130 and two RX-90 anthropomorphic robotic arms. The timing and order of assay plates passing through the screening system were adjusted such that each compound library plate was assayed against the fluorescein- and rhodamine-labeled assay systems at immediately adjacent time points.
Potency means the concentration at half of the fitted maximal effect.
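Wherever activity change, negative = inhibition is given: plate controls were peptide without protein for full effect.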

Sequence of UniProt P38398 (P38398 whole entry, looked up): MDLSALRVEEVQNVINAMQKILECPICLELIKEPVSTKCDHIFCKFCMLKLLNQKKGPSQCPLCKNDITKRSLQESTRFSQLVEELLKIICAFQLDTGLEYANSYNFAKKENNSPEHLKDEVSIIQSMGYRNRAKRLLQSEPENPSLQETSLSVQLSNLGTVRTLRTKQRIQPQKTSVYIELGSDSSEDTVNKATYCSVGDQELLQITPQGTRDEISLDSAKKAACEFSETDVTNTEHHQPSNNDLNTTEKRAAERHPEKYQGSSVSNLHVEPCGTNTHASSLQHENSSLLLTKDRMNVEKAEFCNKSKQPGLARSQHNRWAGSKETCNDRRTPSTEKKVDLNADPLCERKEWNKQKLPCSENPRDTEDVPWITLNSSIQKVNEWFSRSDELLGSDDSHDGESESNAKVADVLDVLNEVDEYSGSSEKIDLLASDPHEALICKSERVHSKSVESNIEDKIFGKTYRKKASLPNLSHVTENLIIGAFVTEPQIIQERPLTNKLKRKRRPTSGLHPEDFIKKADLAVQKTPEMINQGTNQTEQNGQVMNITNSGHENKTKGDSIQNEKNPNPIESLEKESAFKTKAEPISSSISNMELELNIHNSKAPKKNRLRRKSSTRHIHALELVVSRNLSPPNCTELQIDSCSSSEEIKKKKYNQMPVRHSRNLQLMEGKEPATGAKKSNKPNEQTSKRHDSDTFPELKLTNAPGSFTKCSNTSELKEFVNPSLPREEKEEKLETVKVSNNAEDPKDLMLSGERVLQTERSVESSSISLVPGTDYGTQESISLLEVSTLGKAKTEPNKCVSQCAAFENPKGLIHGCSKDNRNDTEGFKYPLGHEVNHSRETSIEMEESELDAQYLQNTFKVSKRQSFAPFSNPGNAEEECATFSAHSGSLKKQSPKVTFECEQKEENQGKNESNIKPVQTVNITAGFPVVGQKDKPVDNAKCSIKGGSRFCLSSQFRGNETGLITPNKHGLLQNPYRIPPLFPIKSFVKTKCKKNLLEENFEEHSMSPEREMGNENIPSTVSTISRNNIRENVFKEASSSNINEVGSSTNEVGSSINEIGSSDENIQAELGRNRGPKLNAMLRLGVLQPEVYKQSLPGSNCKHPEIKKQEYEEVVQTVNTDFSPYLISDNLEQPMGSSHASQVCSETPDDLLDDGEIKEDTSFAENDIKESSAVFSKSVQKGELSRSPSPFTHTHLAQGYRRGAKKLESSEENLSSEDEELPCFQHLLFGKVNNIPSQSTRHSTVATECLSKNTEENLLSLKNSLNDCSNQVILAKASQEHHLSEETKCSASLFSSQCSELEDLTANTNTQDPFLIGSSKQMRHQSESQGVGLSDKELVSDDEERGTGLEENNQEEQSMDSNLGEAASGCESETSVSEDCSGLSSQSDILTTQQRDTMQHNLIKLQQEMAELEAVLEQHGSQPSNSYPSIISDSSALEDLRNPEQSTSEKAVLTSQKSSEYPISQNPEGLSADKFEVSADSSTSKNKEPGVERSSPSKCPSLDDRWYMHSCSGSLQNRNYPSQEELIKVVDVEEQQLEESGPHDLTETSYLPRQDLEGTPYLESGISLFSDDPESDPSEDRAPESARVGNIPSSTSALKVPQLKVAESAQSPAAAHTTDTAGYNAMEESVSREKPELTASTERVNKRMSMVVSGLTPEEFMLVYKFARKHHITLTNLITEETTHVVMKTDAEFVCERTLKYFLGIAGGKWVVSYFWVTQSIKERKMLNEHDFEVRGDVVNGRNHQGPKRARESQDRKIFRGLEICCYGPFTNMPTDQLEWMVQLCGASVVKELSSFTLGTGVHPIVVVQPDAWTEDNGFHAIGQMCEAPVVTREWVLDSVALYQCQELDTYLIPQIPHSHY

Activity change, negative = inhibition, inactive:
CN(C)c1ccc(/C=C/c2cc[n+]([O-])cc2)cc1 53.3%, Cc1ccccc1N1C(=O)c2cccc3c(N(C)CCO)ccc(c23)C1=O 32.3%, N#C/C(C(=O)c1ccccc1)=C1/SC=C(N)N1c1ccccc1 83%, CN(C)c1ccc(N/C=C/C(=O)c2ccc(F)cc2)cc1 33.6%, CCNc1ncc2nc(-c3cccs3)c(=O)n(-c3ccccc3)c2n1 30.6%, CCOC(=O)c1ccc2c(c1)nc(SC/C(O)=C(\C#N)c1nc3ccccc3[nH]1)n2CC 54.6%, Cc1ccc(N=c2oc3cc(O)ccc3cc2C(N)=O)cc1 32.7%, CCN1C(=O)c2cccc3c(NC(=O)c4ccc5c(c4)OCCO5)ccc1c23 47.6%, CCOc1cc(C2C(C#N)=C(N)SC(N)=C2C#N)ccc1OCCN1CCOCC1 54.1%, COc1cccc(Nc2ncc3nc(-c4ccc(Cl)cc4)c(=O)n(CCC#N)c3n2)c1 37.5%, CCOc1ccc(C2C(C#N)=C(N)SC(N)=C2C#N)c(OCC)c1 131%, O=S(=O)(Nc1nc2ccccc2nc1Nc1ccc2c(c1)OCCO2)c1cccs1 40.4%, CCNc1nc(N)c(C(=O)c2ccc(Cl)s2)s1 48.2%, CC(=O)c1c(O)c(C)c(O)c2c1OC1=CC(=O)C(C(C)=O)C(=O)C12C (stereo not drawn) 58.7%, Cc1nnc2sc(-c3ccc(NC(=O)c4ccc(-c5ccc(Cl)cc5Cl)o4)cc3)nn12 37.1%, COc1ccc(-c2nc3cnc(Nc4ccccc4)nc3n(CCC#N)c2=O)cc1 123%, C=CCN(C(=O)CSc1nc2[nH]ncc2c(=O)n1-c1ccccc1OC)c1ccccc1 33%, N#CC1=C(N)SC(N)=C(C#N)C1c1ccc(C(F)(F)F)cc1 33.7%, CCOC(=O)SC1=N/C(=C\c2ccc(N(C)C)cc2)C(=O)S1 39.6%, CCN1C(=O)/C(=C2/SC(C)=C(C)N2CC)SC1=S 36.8%, N#CC1=C(N)OC(c2ccccc2)=C(C#N)C1c1ccc2c(c1)OCO2 (stereo not drawn) 30.3%, N#CCCn1c(=O)c(-c2cccs2)nc2cnc(Oc3cccc(Cl)c3)nc21 62.5%, N#CC1=C(N)SC(N)=C(C#N)C1c1ccnc2ccccc12 111%, COc1cc(-c2ccc(N=Nc3ccc4c(S(=O)(=O)O)cc(S(=O)(=O)O)c(N)c4c3O)c(OC)c2)ccc1N=Nc1ccc2c(S(=O)(=O)O)cc(S(=O)(=O)O)c(N)c2c1O -5.56% [at 34.4 µM], CC(=C1C2C=CC1C1C(=O)NC(=O)C21)c1ccccc1 (stereo not drawn) 40.9%, COc1ccc(Oc2ncc3nc(-c4cccs4)c(=O)n(-c4ccccc4)c3n2)cc1 34%, COc1ccc(-c2nc3cnc(Nc4ccccc4)nc3n(Cc3cccs3)c2=O)cc1 9.24%, CC(=O)N1C(=O)C(=C2C=C(C)OC(C)=C2)c2ccccc21 94.8%, COc1cccc(Cn2c(=O)cnc3cnc(Nc4ccccc4)nc32)c1 35%, CC1=C(C(=O)Nc2ccccc2)C(c2cccs2)C(C#N)=C(SCC#N)N1 (stereo not drawn) 32.1%, CCNc1ncc2nc(-c3cn(C)c4ccccc34)c(=O)n(-c3ccc(OC)cc3)c2n1 24%, CCC(c1nnc(SCc2nc3ccccc3s2)n1Cc1ccccc1)N(C)C (stereo not drawn) 34%, CC(=Nc1ccc(O)cc1)c1sc2ccccc2c1O 55.1%, CCN(CC)c1ccc2c(c1)OC(N)=C(C#N)C2c1cccnc1 (stereo not drawn) 71.6%, COc1ccc(-c2nc(C(N)=O)c3[nH]c(=O)n(-c4cccc(C)c4)c3n2)c(OC)c1 31.8%, O=C(CSc1nc2[nH]ncc2c(=O)n1-c1ccccc1)N1CCCc2ccccc21 109%, CC(=O)OC1CCC2C3CCc4cc(O)ccc4C3CCC12C (stereo not drawn) 40.9% [at 3.08 µM], COc1ccc(-c2nc3cnc(N(C)C)nc3n(CCC#N)c2=O)cc1 3.63%, CCN(CC)CCCC(C)Nc1c2ccc(Cl)cc2nc2ccc(OC)cc12 (stereo not drawn) -9.68% [at 3.08 µM], Cc1ccc(C2C(C#N)=C(N)Oc3c2sc2ccccc32)o1 (stereo not drawn) 56.5%, O=c1cc(O)c2c(=O)n(-c3ccccc3)c3ccccc3c2o1 30.9%

Potency, active:
Nc1ccc2c3c(cccc13)C(=O)NC2=O 12.6 µM, O=C(O)CN(CC(=O)O)Cc1cc2c(-c3ccccc3C(=O)O)c3cc(CN(CC(=O)O)CC(=O)O)c(=O)cc-3oc2cc1O 0.126 µM, CC1CCCCN1Cc1nc2c(c(=O)n(C)c(=O)n2C)n1Cc1c(F)cccc1Cl (stereo not drawn) 0.631 µM, Cn1c(NC(=O)c2ccccc2Br)cc(=O)n(C)c1=O 2.51 µM, Cc1cc2nc3c(=O)[nH]c(=O)nc-3n(CC(O)C(O)C(O)CO)c2cc1C (stereo not drawn) 3.98 µM and 12.6 µM, O=C(O)c1ccc(Cl)c2c1C1C=CCC1C(c1ccccn1)N2 (stereo not drawn) 31.6 µM

Potency, inactive:
COc1cc(/C=C/C(=O)CC(=O)/C=C/c2ccc(O)c(OC)c2)ccc1O

— PubChem BioAssay AID875 (National Center for Advancing Translational Sciences (NCATS), 2007)
